Measured values taken from PubChem BioAssay AID1346428 (National Center for Advancing Translational Sciences (NCATS), 2018).
Hit rate of the full screen: of about 48,000 compounds, about 1,200 (2.5%) were called active. Inconclusive results (about 2%) are left out.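 Rule for the calls: active = activation of at least 60% and not above a set upper limit (about 1 call in 100 departs from these limits); inconclusive = activation of 40% to 60%, or above that upper limit; inactive = activation under 40%.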 The list shows a part of the results.

What follows are compounds tested against Probable G-protein coupled receptor 32 (Homo sapiens) (UniProt O75388) (assay: qHTS for Agonists of Human Resolvin D1 Receptor DRV1). Conditions: CHO-K1 GPR32 beta-arrestin PathHunter luminescence, 90 min; at 76.9 µM; hits give high values; zero percent set by DMSO-only wells.
Sequence of UniProt O75388 (O75388 whole entry, looked up): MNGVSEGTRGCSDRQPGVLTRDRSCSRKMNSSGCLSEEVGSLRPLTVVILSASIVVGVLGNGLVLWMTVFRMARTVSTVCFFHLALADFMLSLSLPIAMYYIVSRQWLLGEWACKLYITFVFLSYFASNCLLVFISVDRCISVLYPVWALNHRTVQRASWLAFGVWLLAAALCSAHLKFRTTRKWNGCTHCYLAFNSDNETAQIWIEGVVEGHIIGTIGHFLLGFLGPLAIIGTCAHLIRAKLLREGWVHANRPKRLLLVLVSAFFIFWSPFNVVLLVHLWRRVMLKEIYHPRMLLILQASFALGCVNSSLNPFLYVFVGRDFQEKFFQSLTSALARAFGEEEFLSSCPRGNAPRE
Outline: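 Readings come from a cell-based beta-arrestin complementation format: CHO-K1 GPR32 stable cells (2,500/well) treated 90 min with compounds, then beta-Gal substrate added for 1 h before chemiluminescence imaging.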
Note: 0% is about no effect.

activation, inactive:
O=C1CCCc2cc(S(=O)(=O)N3CCCC(C(=O)NCc4ccccc4)C3)ccc2N1 (stereo not drawn) 5.23%
CC(=O)c1cccc(NC(=O)c2nc(-c3ccccc3)n(-c3ccccc3)n2)c1 -7.85%
CCOC(=O)[C@H](CCc1ccccc1)N[C@@H](C)C(=O)N1Cc2cc(OC)c(OC)cc2C[C@H]1C(=O)O 8.02%
COc1cccc(NC(=O)CCNS(=O)(=O)c2ccc3c(c2)oc(=O)n3C)c1 -6.13%
COc1ccc(CNC(=O)c2cc3c(=O)n(Cc4ccco4)ccc3nc2C)cc1 -8.23%
CC(=O)Nc1ccc(NC(=O)CCCn2nc(C)c3sc4ccccc4c3c2=O)cc1 2.6%
CCOc1ccc(N(C)S(=O)(=O)c2ccc3c(c2)CCCN3C(C)=O)cc1 1.02%
O=C(CSCn1nnc2c(=O)[nH]c(Cc3ccc(F)cc3)nc21)Nc1cccc(C(F)(F)F)c1 -14%
CN1CCC(OC(c2ccccc2)c2ccccc2)CC1 22.1%
Cc1cc(C)c(NC(=O)CCS(=O)(=O)c2cc3c(cc2Cl)NC(=O)CO3)c(C)c1 40.3%
CCOc1ccc(NS(=O)(=O)c2cc3c(cc2Cl)NC(=O)CO3)cc1 -15.1%
CCc1ccccc1NC(=O)C(=O)NCCCN1CCOCC1 27.3%
CCn1cc(C(=O)N2CCN(c3ccc(C)cc3)C(C)C2)c(=O)c2cc(S(=O)(=O)N3CCCC3)ccc21 (stereo not drawn) 5.66%
CCC(C)NC(=O)C1CCN(S(=O)(=O)c2ccc3c(c2)CCCN3C(C)=O)CC1 (stereo not drawn) 7.06%
COc1cc2c(cc1OC)C(COc1cccc(C(F)(F)F)c1)N(C(=O)c1ccc(S(=O)(=O)N3CCCC3)cc1)CC2 (stereo not drawn) 8.69%
Cc1ccc2c(c1)C(N1CCN(C)CC1)=Nc1cccnc1N2 -5.78%
Cc1nc2ccc(S(=O)(=O)N(CC(=O)Nc3ccc(F)cc3F)Cc3ccccc3)cc2s1 -11.6%
Cc1nc2n(c(=O)c1CCN1CCC(C(=O)c3ccc(F)cc3)CC1)CCS2 -0.802%
CNC(=O)CCCN1C(=O)c2cccnc2Sc2ccccc21 -6.45%
CCOc1cc(C(=O)NCCc2sc(-c3ccc(F)cc3)nc2C)cc(OCC)c1OCC -6.1%
Cc1ccc(S(=O)(=O)Nc2cccc(-c3cn4cccc(C)c4n3)c2)c(C)c1 24.7%
O=C(Cn1c(=O)c2cccn2c2cccnc21)NCc1cccc(F)c1 -14.9%
O=C(Cn1c(SCc2ccccc2F)nc2ccncc21)Nc1ccccc1C(F)(F)F -2.24%
